Laboratory results reported in PubChem BioAssay AID485367 (National Center for Advancing Translational Sciences (NCATS), 2010).
Out of some 330,000 compounds screened, about 560 (0.17%) were called active. The inconclusive results got no clear call from the source; some entries with a clear call stand among them for comparison. The call rests on the fitted dose curve; in most records, active means well fitted inhibition curve with a large enough effect; inconclusive means small, poorly fitted or top-dose-only effect, or effect the other way; inactive means flat fitted curve, though single readings scatter. Potencies of inconclusive entries are left out as doubtful fits.

biological target: ATP-dependent 6-phosphofructokinase (Trypanosoma brucei brucei) (UniProt O15648); experiment: qHTS Assay to Find Inhibitors of T. brucei phosphofructokinase; further: nearly all actives have a fitted effect of over 60% in size; settings: T. brucei PFK, ADP-Glo luminescence; activity, negative = inhibition: at 57.5 µM (top of the series)
UniProt O15648, sequence (O15648 whole entry, looked up): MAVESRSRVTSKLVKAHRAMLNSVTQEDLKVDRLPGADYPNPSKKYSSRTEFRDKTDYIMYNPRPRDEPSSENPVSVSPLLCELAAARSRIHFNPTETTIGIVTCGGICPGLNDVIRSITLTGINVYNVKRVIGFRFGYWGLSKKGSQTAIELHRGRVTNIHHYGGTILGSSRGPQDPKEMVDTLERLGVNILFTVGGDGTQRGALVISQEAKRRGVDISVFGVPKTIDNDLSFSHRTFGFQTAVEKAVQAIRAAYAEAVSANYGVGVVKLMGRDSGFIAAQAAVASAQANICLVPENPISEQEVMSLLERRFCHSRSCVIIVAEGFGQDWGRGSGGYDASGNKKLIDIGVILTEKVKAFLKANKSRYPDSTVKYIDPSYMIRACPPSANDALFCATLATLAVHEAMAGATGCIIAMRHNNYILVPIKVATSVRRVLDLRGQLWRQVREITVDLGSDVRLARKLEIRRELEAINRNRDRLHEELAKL
From the text: NIH Molecular Libraries Probe Production Network [MLPCN] NIH Chemical Genomics Center [NCGC] Grant: 1 R03 MH092153-01 PI Name: Malcolm Walkinshaw, University of Edinburgh NCGC Assay Overview: Various species of the protozoan family Trypanosomatidae are responsible for a range of serious human diseases in tropical and subtropical areas of the world. […] Many of the disorders caused by trypanosomatids are fatal if left untreated, but most currently used drugs are inefficient and toxic. […] Oxidative metabolism involving the mitochondrial tricarboxylic acid cycle and oxidative phosphorylation are repressed in these parasites, and recent RNA interference (RNAi) experiments have shown that even partial depletion of certain individual glycolytic enzymes can lead to the death of cultured parasites. One such glycolytic enzyme, phosphofructokinase (PFK), catalyzes the formation of fructose-1,6-bisphosphate (F1,6BP) and ADP from fructose-6-phosphate (F6P) and ATP, and in many metabolic circumstances makes an important contribution to the control of flux through the glycolytic pathway. As a specific glycolytic target, PFK is particularly attractive as it catalyzes the first irreversible step in glycolysis, and structural and kinetic studies have shown very substantial and essential differences from corresponding host enzymes, allowing for the discovery of parasite-selective inhibitors. The goal of this screen is to find small-molecule inhibitors of T. brucei PFK using a biochemical assay that measures PFK activity as a function of ADP production. A luminescence-based assay for T. brucei PFK activity has been developed which uses luciferase to detect production of ADP. Traditional luciferase-based nucleotide detection reagents rely on ATP production as a direct substrate for the luciferase reaction; however, PFK catalyzes the transfer of a phosphate from ATP to F6P, resulting in the net depletion of ATP. To directly measure the ADP product of the PFK reaction, we used the ADP-Glo detection kit (Promega), which utilizes two separate reactions to 1) deplete all remaining uncatalyzed ATP and 2) convert all remaining ADP to ATP, which is then detected through a traditional luciferase-coupled reaction. Compounds were screened as a concentration-titration series that ranged from 57 uM to 0.7 nM.
NCGC Assay Protocol Summary: NCGC Assay Protocol Summary: Substrate buffer was dispensed into white, solid 1536-well plates at 3uL/well in 0.1M triethanolamine (TEA) buffer, pH 8.0, containing final concentrations of 5 mM MgCl2, 0.01% Tween20, 0.5 mM fructose-6-phosphate (F6P) and 0.1mM ATP. Then, 23 nL of compounds or DMSO were delivered to each well using a pin tool. One uL T. brucei PFK (0.1M TEA, 0.01% Tween20, 0.1% bovine serum albumin (BSA) and 1.25nM PFK, final concentrations) was then dispensed, and plates were incubated at room temperature for 45 min. The luminescent detection reagent, ADP-Glo (Promega), was then added in two steps: the first reagent, ADP-Glo (which converts remaining uncatalyzed ATP), was added at 2.5uL/well and incubated for ten minutes at room temperature, and the second component, Kinase Detection reagent (which converts ADP to ATP as a substrate for luciferase-based luminescence), was added immediately after at 5uL/well, followed by one final ten minute room temperature incubation. The plates were measured on a ViewLux plate reader for luminescent signal using a clear filter with a one second exposure. The %Activity was determined from the corrected luminescence values. As no specific T. brucei PFK inhibitors have been identified in the literature, 1x (1.25nM) and 0x PFK enzyme controls (untreated) were included to normalize %Activity of identified inhibitors; 0x enzyme values corresponded to 100%Activity (full inhibition), while 1x PFK enzyme values were used to normalize 0%Activity (no inhibition). Concentration-response curves were fitted to the signals arising from the resulting luminescence. […]
Potency means the concentration at half of the fitted maximal effect; tags describe the fitted curve by direction and shape.

SMILES | Potency | activity, negative = inhibition
Cc1[nH]n(-c2ccccc2)c(=O)c1C(c1cccc([N+](=O)[O-])c1O)c1c(C)[nH]n(-c2ccccc2)c1=O | inconclusive [falling, single point] | 
O=c1[nH]c(=O)n(-c2cccc(F)c2)c(O)c1/C=C1\C=Nc2ccccc21 | inconclusive [activator, single point] | 
COCCCNC(=O)Cn1cc(/C=C2\C(=O)NC(=O)N(c3ccccc3F)C2=O)c2ccccc21 | inconclusive [activator, single point] | 
CC(c1ccccc1)n1cncc1C(=O)O (configuration not stated) |  | inactive: 2.77%
C[C@H]1O[C@@H](O[C@H]2[C@@H](O)C[C@H](O[C@H]3[C@@H](O)C[C@H](O[C@H]4CC[C@@]5(C)[C@H](CC[C@@H]6[C@@H]5CC[C@]5(C)[C@@H](C7=CC(=O)OC7)CC[C@]65O)C4)O[C@@H]3C)O[C@@H]2C)C[C@H](O)[C@@H]1O |  | inactive: -0.658%
COC(=O)C1=C(c2c(C)noc2C)C[C@@H]2CC[C@H]1N2C(=O)NCCNC(C)=O | inconclusive [falling, single point] | 
CNC(=O)OCCc1n(C)cc[n+]1C |  | inactive: -3.9%
CCC(=O)Nc1ccc(F)c(Cl)c1 | active: 30.1 µM | 
COC(=O)C1=C(c2ccc(F)cc2OCc2ccccc2)C[C@@H]2CC[C@H]1N2C(=O)NCCN1CCOCC1 |  | inactive: 0.471%
Cc1nc2ccc(OC(=O)c3ccccc3)cc2s1 | inconclusive [falling, single point] | 
CCn1cc(C=C2C(=O)NC(=O)NC2=O)c2ccccc21 |  | inactive: 19.8%
CN1CCN2c3ccc(N)cc3CC3(C(=O)NC(=O)NC3=O)C2C1 (configuration not stated) | inconclusive [falling, full curve] | 
NC(N)=Nc1ccc2[nH]c3c(c2c1)C[C@@]1(O)[C@H]2Cc4ccc(O)c5c4[C@@]1(CCN2CC1CC1)[C@H]3O5 | inconclusive [falling, partial curve] | 
Cc1ccc(N/N=C/c2c(O)n(-c3ccccc3)c(=O)[nH]c2=O)cc1 |  | inactive: -1.3%
Cc1ccc(/C=C2/C(=O)NC(=O)N(C)C2=O)cc1 |  | inactive: -3.21%
O=C(C(Cc1ccccc1)NS(=O)(=O)c1cccc2nsnc12)N1CCC2(CC1)OCCO2 (configuration not stated) |  | inactive: -2.08%
NCCc1c[nH]c2ccc(F)cc12 | inconclusive [falling, partial curve] | 
Cc1ccc(CS(=O)(=O)CCC(=O)N2CCC3(CC2)OCCO3)cc1 | inconclusive [falling, single point] | 
O=Cc1c(NCc2ccc(Cl)cc2)c2ccccc2[nH]c1=O | inconclusive [falling, single point] | 
Clc1ccc2[nH]c3c(c2c1)CCNC3 | inconclusive [falling, single point] | 
O=C(C1CCN(S(=O)(=O)c2ccccc2)CC1)N1CCC2(CC1)OCCO2 |  | inactive: -1.5%
O=C(NCCN1CCOCC1)c1ccc(CSc2nc3ccncc3n2Cc2ccc(F)cc2)cc1 | inconclusive [falling, partial curve] | 
Cn1c(O)c(/C=N/NC(=O)c2ccncc2)c(=O)[nH]c1=S | inconclusive [falling, single point] | 
Cc1ccc2c(c1)C1CN(C)CCC1N2C(=O)c1cccnc1Cl (configuration not stated) |  | inactive: -5.87%

SMILES | Potency | activity, negative = inhibition
O=C1CC(=O)N(c2ccc3c(c2)OCO3)C(=O)N1 |  | inactive: 18%
Clc1ccc2scc(CN3CCCCC3)c2c1 | inconclusive [falling, partial curve] | 
O=c1oc2ccccc2c(O)c1C(c1ccccn1)c1c(O)c2ccccc2oc1=O |  | inconclusive: -43.5%
NC1CCc2cc(O)c(O)cc2C1 (configuration not stated) | active: 6.75 µM | 
N#Cc1ccc(OCC(=O)Nc2ccc(S(=O)(=O)N3CCOCC3)cc2)cc1 | active: 12 µM | 
CCNc1cc(N2CCN(C)CC2)ccc1[N+](=O)[O-] |  | inactive: -1.73%
Cc1ccccc1N1C(=O)/C(=C/c2ccco2)C(=O)NC1=S | inconclusive [falling, full curve] | 
C=CCSC1=N/C(=C\c2cc(OC)c3c(c2)OCO3)C(=O)S1 | inconclusive [falling, single point] | 
CN(C)[C@@H]1C(=O)C(C(N)=O)=C(O)[C@@]2(O)C(=O)C3=C(O)c4c(O)cccc4[C@@](C)(O)C3[C@H](O)C12 (some centres not stated) | inconclusive [falling, single point] | 
O=C1N(c2ccc(Cl)c(Cl)c2)CN(Cc2ccccc2)CN1n1cnnc1 | active: 26.9 µM | 
N#CCC(=O)NN1Cc2ccccc2C1=N |  | inactive: 1.55%
NS(=O)(=O)c1ccc(NC(=O)Nc2cccc(Cl)c2)cc1 | active: 23.9 µM | 
O=c1[nH]c(=S)n(Cc2ccco2)c(O)c1C=NCc1cccs1 | inconclusive [falling, partial curve] | 
C[C@]12CCC3[C@@H](CCC4=CC(=O)CC[C@@]43C=O)C1CCC2=O (some centres not stated) |  | inactive: -11.8%
NC(=S)c1cn(C2OC(CO)C(O)C2O)c2ncnc(N)c12 (configuration not stated) | inconclusive [falling, partial curve] | 
O=C1CC(c2cccnc2)=NN1c1ccc(Cl)cc1Cl | inconclusive [activator, full curve] | 
O=C(NNS(=O)(=O)c1ccccc1F)c1cc(-c2ccccc2)n[nH]1 | inconclusive [activator, partial curve] | 
O=C(COc1ccccc1[N+](=O)[O-])Nc1cccc(S(=O)(=O)NC2=NCCCCC2)c1 | inconclusive [falling, partial curve] | 
Cc1ccc(NNC(=O)Nc2ccc(Cl)cc2)nn1 | active: 23.9 µM | 
O=S(=O)(O)c1cc(OS(=O)(=O)c2ccccc2)cc2ccccc12 | active: 23.9 µM | 
O=c1cc(-c2ccc(O)c(O)c2)oc2cc(O)cc(O)c12 | inconclusive [activator, partial curve] | 
COc1cccc([C@@]2(O)CCCC[C@@H]2CN(C)C)c1 | inconclusive [falling, single point] | 
c1ccc2c(CCNC3CCCCC3)c[nH]c2c1 | inconclusive [falling, single point] | 
